Data: PubChem BioAssay AID2528 (National Center for Advancing Translational Sciences (NCATS), 2010)
Several values for one entry are separate records, joined by “and”; a condition that tells them apart may be missing. Identical values can stand only once. Screen size: about 350,000 compounds; about 700 (0.2%) were called active. The call rests on the fitted dose curve; in most records, active means well fitted inhibition curve with a large enough effect; inconclusive means small, poorly fitted or top-dose-only effect; inactive means flat fitted curve, though single readings scatter. The entries are a selection whose mix differs from that of the whole data set. Where a structure was tested more than once in an assay, its records may differ in their call.

Molecular target: RecQ-like DNA helicase BLM (Homo sapiens) (UniProt P54132)
Experiment: qHTS Assay for Inhibitors of Bloom's syndrome helicase (BLM); further: nearly all actives have a fitted effect of over 35% in size;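 on activity change, negative = inhibition: plate controls were vehicle for no effect and no enzyme for full effect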
Conditions: recombinant BLM DNA unwinding, fluorescence dequenching; series mostly up to 56.1 µM; activity change, negative = inhibition: at the top concentration
Potency means the concentration at half of the fitted maximal effect.

UniProt P54132, sequence (P54132 whole entry, looked up): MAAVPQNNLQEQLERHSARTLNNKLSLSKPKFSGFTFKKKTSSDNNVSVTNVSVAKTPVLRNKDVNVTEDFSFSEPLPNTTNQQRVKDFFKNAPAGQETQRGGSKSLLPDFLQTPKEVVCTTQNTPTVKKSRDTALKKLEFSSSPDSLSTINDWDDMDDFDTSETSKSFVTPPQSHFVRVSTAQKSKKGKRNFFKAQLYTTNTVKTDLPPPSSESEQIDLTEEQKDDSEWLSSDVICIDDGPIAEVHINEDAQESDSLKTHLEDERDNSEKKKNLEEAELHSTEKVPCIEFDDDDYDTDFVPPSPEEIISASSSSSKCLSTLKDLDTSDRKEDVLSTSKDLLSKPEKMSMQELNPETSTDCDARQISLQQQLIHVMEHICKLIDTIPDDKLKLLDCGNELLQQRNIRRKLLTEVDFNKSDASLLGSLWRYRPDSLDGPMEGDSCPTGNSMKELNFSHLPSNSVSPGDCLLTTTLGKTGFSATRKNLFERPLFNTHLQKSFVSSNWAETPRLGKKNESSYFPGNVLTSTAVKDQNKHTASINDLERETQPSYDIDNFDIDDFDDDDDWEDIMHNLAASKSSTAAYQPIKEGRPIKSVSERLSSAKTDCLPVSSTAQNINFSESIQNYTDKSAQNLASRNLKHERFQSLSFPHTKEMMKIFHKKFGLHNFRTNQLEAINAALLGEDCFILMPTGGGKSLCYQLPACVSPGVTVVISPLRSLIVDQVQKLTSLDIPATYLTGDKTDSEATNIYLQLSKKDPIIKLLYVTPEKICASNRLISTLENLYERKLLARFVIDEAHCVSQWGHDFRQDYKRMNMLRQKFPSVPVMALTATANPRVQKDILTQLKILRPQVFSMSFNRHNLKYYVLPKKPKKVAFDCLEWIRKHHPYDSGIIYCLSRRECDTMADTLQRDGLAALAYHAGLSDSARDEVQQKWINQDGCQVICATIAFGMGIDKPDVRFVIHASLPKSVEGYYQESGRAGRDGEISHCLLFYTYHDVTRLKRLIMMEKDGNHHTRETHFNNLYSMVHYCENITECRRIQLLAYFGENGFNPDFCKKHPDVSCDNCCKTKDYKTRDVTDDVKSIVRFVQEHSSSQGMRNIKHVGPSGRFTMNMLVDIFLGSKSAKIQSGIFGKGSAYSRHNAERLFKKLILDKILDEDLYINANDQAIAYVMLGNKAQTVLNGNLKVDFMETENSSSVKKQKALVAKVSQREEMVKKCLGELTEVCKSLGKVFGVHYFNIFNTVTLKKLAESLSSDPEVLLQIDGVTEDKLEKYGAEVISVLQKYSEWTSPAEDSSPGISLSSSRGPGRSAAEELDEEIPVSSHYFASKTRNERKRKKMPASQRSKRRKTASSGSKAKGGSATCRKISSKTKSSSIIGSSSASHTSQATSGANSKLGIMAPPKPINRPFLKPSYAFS

| Structure (SMILES) | activity change, negative = inhibition | Potency |
| --- | --- | --- |
| NCCS(=O)O | inactive: 1.98% |  |
| CNc1ncnc2c1ncn2[C@H]1C[C@H](OP(=O)(O)O)[C@H](COP(=O)(O)O)O1 | inactive: 3.63% |  |
| CCCCC1=CC2=C(c3ccco3)C(=O)C(C)(OC(=O)c3ccc(OC)cc3)C(=O)C2=CN1Cc1ccco1 (configuration not stated) | inactive: -1.78% [at 12.4 µM] |  |
| CC(C)NC[C@H](O)c1ccc(O)c(O)c1 |  | inactive |
| CN(C)CCOC(=O)COc1ccc(Cl)cc1 |  | inactive |
| COc1ccc(Nc2nc(N)c3cc(OC)c(OC)cc3n2)cc1 |  | active: 15.8 µM |
| C[C@H](N=C(NC#N)Nc1ccncc1)C(C)(C)C |  | inactive |
| OC(CCN1CCCCC1)(c1ccccc1)C1CCCCC1 (configuration not stated) |  | inactive |
| O=C(O)c1cc(=O)c2ccc(Cl)cc2[nH]1 |  | inactive |
| O=C(O)CN(CC(=O)O)Cc1cc2c(-c3ccccc3C(=O)O)c3cc(CN(CC(=O)O)CC(=O)O)c(=O)cc-3oc2cc1O |  | active: 15.8 µM |
| CN(C)CC[C@@H](c1ccc(Cl)cc1)c1ccccn1 |  | inactive |
| Nc1cc(-c2ccncc2)c[nH]c1=O |  | inactive |
| O=C1C(=O)c2ncccc2-c2cccnc21 |  | active: 15.8 µM |
| Cc1ccccc1N1C(=O)c2cc(S(N)(=O)=O)c(Cl)cc2NC1C (configuration not stated) | inactive: -5.18% |  |
| Cc1cc2nc3c(=O)[nH]c(=O)[nH]c3nc2c([N+](=O)[O-])c1N |  | active: 15.8 µM |
| Cc1ccc(NC2=CC(=O)c3sc(C)nc3C2=O)cc1 |  | active: 7.94 µM |
| CNc1ncnc2c1ncn2[C@@H]1O[C@H](CO)[C@@H](O)[C@@H]1O | inactive: 4.87% [at 21.4 µM] |  |
| CC1(OC(=O)c2cccs2)C(=O)C=C2C=C3CCCN3C=C2C1=O (configuration not stated) |  | active: 22.4 µM |
| COc1cc(NCCCC(C)N)c2ncccc2c1 (configuration not stated) | inactive: -1.95% |  |
| N=C1/C(=C\c2ccc(-c3cccc(C(=O)O)c3)o2)C(=O)N=C2SC=C(c3ccccc3)N12 | inactive: -23.6% |  |
| CC(=O)O[C@@H]1C(=O)[C@@]2(C)[C@H](O)C[C@H]3OC[C@]3(OC(C)=O)[C@@H]2[C@H](OC(=O)c2ccccc2)[C@@]2(O)C[C@H](OC(=O)[C@@H](O)[C@@H](NC(=O)c3ccccc3)c3ccccc3)C(C)=C1C2(C)C (stereo in doubt) | inactive: -1.35% [at 21.4 µM] |  |
| Cc1nc(SCC(=O)c2ccccc2)c(C#N)c(-c2ccco2)c1C(=O)NCc1ccco1 |  | active: 25.1 µM |
| CCc1cccc2c3c([nH]c12)C(CC)(CC(=O)O)OCC3 (configuration not stated) |  | inactive |

| Structure (SMILES) | activity change, negative = inhibition | Potency |
| --- | --- | --- |
| S=C(S)O[C@@H]1C[C@@H]2C[C@H]1[C@@H]1CCC[C@H]21 | inactive: 0.932% |  |
| OC[C@H]1O[C@@H](n2cnc3cncnc32)[C@H](O)[C@@H]1O | inactive: 1.26% |  |
| N#Cc1cc2[nH]c(=O)c(=O)[nH]c2cc1[N+](=O)[O-] |  | inactive |
| C[C@]12CC[C@@H]3c4ccc(O)cc4CC[C@H]3[C@@H]1CCC2=O | inactive: -3.03% |  |
| COC(=O)c1c(-c2cc(OC)c(OC)c(OC)c2)c2ccnc(OCc3ncccn3)c2c(=O)n1Cc1ccnc(C)c1 | inactive: 4.06% |  |
| CC1(C)S[C@@H]2[C@H](NC(=O)C(N)c3ccccc3)C(=O)N2[C@H]1C(=O)O (some centres not stated) | inactive: -0.798% [at 21.4 µM] |  |
| Cc1c2c(c(O)c3c(O)cccc13)C(=O)O[C@H]2C1C(N(C)C)C(O)=C(C(N)=O)C(=O)[C@H]1O (some centres not stated) |  | active: 17.8 µM |
| CN(C)c1ccc(-c2nc(NCc3cccnc3)c3ccccc3n2)cc1 |  | active: 15.8 µM |
| CCCCCCCC/C=C\CCCCCCCC(=O)NCCc1ccc(O)c(O)c1 |  | inactive |
| CC(C)(C)c1ccc([C@@H](O)CCCN2CCC(C(O)(c3ccccc3)c3ccccc3)CC2)cc1 | inactive: -0.0518% [at 21.4 µM] |  |
| N#C/C(=C\c1cc(Br)c(O)c(Br)c1)c1nc2ccccc2c(=O)[nH]1 |  | active: 12.6 µM |
| CCOC(=O)C1=C[C@]2(CC)CCCN3CCc4c(n1c1ccccc41)[C@@H]32 |  | inactive |
| COC(=O)[C@@H]1[C@H]2C[C@H]3c4[nH]c5ccccc5c4CCN3C[C@@H]2CC[C@@H]1O | inactive: 1.02% |  |
| CC(C)C[C@H](NC(=O)[C@H]1O[C@@H]1C(=O)O)C(=O)NCCCCN=C(N)N | inactive: 4.69% |  |
| O=C1OC(Nc2cc(Br)cc3cccnc23)c2ccccc21 (configuration not stated) |  | active: 22.4 µM |
| O=C(CSc1nc(O)cc(=O)[nH]1)Nc1ccc2c(c1)CCC2 |  | active: 22.4 µM |
| O=C1CCc2cc(OCCCCc3nnnn3C3CCCCC3)ccc2N1 |  | inactive |
| Fc1ccc(C(c2ccc(F)cc2)N2CCN(C/C=C\c3ccccc3)CC2)cc1 |  | inactive |
| C[C@@H](NC(=O)/C(C#N)=C/c1ccc(O)c(O)c1)c1ccccc1 | inactive: -13.5% |  |
| O=c1oc2cc(O)ccc2c2oc3cc(O)ccc3c12 | inactive: -24.8% |  |
| OCc1cc(C(O)CNCCCCCCOCCCCc2ccccc2)ccc1O (configuration not stated) |  | inactive |
| N[C@H](Cc1ccc(Cl)cc1)C(=O)O | inactive: 0.0534% |  |
| COc1cc2cc3c4c(cc(OC)c(OC)c4c2cc1OC)CCN3C |  | active: 3.98 µM |

| Structure (SMILES) | activity change, negative = inhibition | Potency |
| --- | --- | --- |
| CC(C)c1ccc(S(=O)(=O)/N=C2/C=C(Sc3ncn[nH]3)C(=O)c3ccccc32)cc1 |  | active: 10 µM |
| COc1cccc(/C=N/Nc2ncnc3c2[nH]c2ccc(C)cc23)c1OC |  | active: 14.1 µM |
| CC(=O)N[C@H](CS)C(=O)O | inactive: -8.41% |  |
| CCCCCCCCCCC/C=C\C(C)(C)/C=C\CCCC(=O)O | inactive: -2.86% |  |
| Cc1ccc(SCc2cc(=O)c3c(=O)n(-c4ccccc4)[nH]c3[nH]2)cc1 |  | active: 15.8 µM |
| CN(C)[C@@H]1C(=O)C(C(N)=O)=C(O)[C@@]2(O)C(=O)C3=C(O)c4c(O)ccc(Cl)c4[C@@H](O)[C@H]3C[C@@H]12 | inactive: -8.62% |  |
| COc1c2c(nc3ccccc13)OC(C(C)(O)CO)C2 (configuration not stated) |  | inactive |
| CS(=O)(=O)c1ccc2nc(NC(=O)c3ccc(Cl)nc3)sc2c1 |  | active: 17.8 µM |
| O=C(O)/C=C/c1cnc[nH]1 | inactive: 4.19% |  |
| O=C(N/N=C/c1cn(-c2cccs2)nc1-c1ccccc1)c1ccccc1O |  | active: 20 µM |
| Nc1ccc2c3c(cccc13)C(=O)NC2=O | inactive: -20.8% |  |
| NC1=NC[C@H](Cc2ccc(O)cc2)N1CCc1cccc2ccccc12 | inactive: 38% |  |
| Cc1cccc(C(=O)NCN2CCN(c3ccccc3C#N)CC2)c1 | inactive: -0.795% |  |
| CCc1ccc(C(=O)c2cn(CC(=O)Nc3ccc4c(c3)OCO4)c3ccc(OC)cc3c2=O)cc1 |  | active: 14.1 µM |
| N.N.O=C(O)C1(C(=O)O)CCC1.[Pt] | inactive: -0.104% |  |
| CCCn1c(=O)c2[nH]c(-c3ccc(OCC(=O)Nc4ccc(C#N)cc4)cc3)nc2n(CCC)c1=O | inactive: -2.57% |  |
| COC(=O)C1=C(C)NC(C)=C(C(=O)OCCN(C)Cc2ccccc2)[C@H]1c1cccc([N+](=O)[O-])c1 | inactive: -2.36% [at 21.4 µM] |  |
| O=C1/C(=C/c2ccco2)SC(=S)N1c1cccnc1 |  | active: 31.6 µM |
| CN1C(=CC=C2C=C(I)C(=O)C(I)=C2)C(C)(C)c2ccccc21 |  | active: 28.2 µM |
| C=CC1=C(C)C2=NC1=CC1=NC(=CC3=NC(=CC4=NC(=C2)C(C)=C4CCC(=O)O)C(CCC(=O)O)=C3C)C(C=C)=C1C.[Zn] |  | active: 35.5 µM |
| CC(=O)OCC1=C(C(=O)O)N2C(=O)[C@@H](NC(=O)Cc3cccs3)[C@H]2SC1 |  | inactive |
| COc1cc(=O)n(C)c2c(OC[C@@H](O)C(C)(C)O)cccc12 | inactive: 3.58% [at 21.4 µM] |  |
| O=C1CCC(N2C(=O)c3ccccc3C2=O)C(=O)N1 (configuration not stated) |  | inactive |

| Structure (SMILES) | activity change, negative = inhibition | Potency |
| --- | --- | --- |
| O=C1NC(=O)/C(=C\c2ccccc2OCc2ccccc2)S1 | inactive: -10% |  |
| O=c1cc(-c2ccccc2Cl)oc2c(NS(=O)(=O)c3cc(Cl)cc(Cl)c3O)ccc(O)c12 | inactive: -27.2% |  |
| CC(C)C[C@@H](NC(=O)[C@@H](O)[C@H](N)Cc1ccccc1)C(=O)O | inactive: 1.4% |  |
| CN(CCOc1ccc(C[C@H](Nc2ccccc2C(=O)c2ccccc2)C(=O)O)cc1)c1ccccn1 | inactive: -3.47% |  |
| CC[C@@H](C)[C@H]1O[C@]2(CC[C@@H]1C)C[C@@H]1C[C@H](C/C=C(/C)[C@H](O[C@@H]3C[C@H](OC)[C@H](O[C@@H]4C[C@H](OC)[C@@H](O)[C@H](C)O4)[C@H](C)O3)[C@@H](C)/C=C\C=C3CO[C@@H]4[C@H](O)C(C)=C[C@@H](C(=O)O1)[C@]34O)O2 (tested in a mixture with another compound) | inactive: -12.5% |  |
| CC(C)(CO)Cc1cc(C(C)(C)C)c(O)c(C(C)(C)C)c1 | inactive: -18.2% |  |
| O=C(O)CN(CCN(CC(=O)O)CC(=O)O)CCN(CC(=O)O)CC(=O)O |  | inactive |
| CCCn1cnc2c1c(=O)n(CCCCC(C)=O)c(=O)n2C | inactive: 4.07% |  |
| COC(=O)[C@@H]1[C@@H]2C[C@H]3c4[nH]c5cc(OC)ccc5c4CCN3C[C@@H]2C[C@H](OC(=O)c2cc(OC)c(OC)c(OC)c2)[C@H]1OC | inactive: -12% [at 21.4 µM] |  |
| O=[N+]([O-])c1cc2nc(O)c(O)nc2cc1[N+](=O)[O-] | inactive: -0.424% |  |
| CC(C)NCC(O)c1cc(O)cc(O)c1 (configuration not stated) |  | inactive |
| COc1ccc(N2Cc3cccc(C(=O)N4CCN(C(=O)c5ccco5)CC4)c3C2=O)cc1 |  | active: 17.8 µM |
| CC(C)(C(=O)O)c1ccc([C@H](O)CCCN2CCC(C(O)(c3ccccc3)c3ccccc3)CC2)cc1 | inactive: -0.503% |  |
| C=CCn1c(N)c(C(=O)NCC2CCCO2)c2nc3ccccc3nc21 (configuration not stated) |  | active: 5.62 µM |
| COc1ccccc1CNC(=O)COC(=O)c1cc(-c2ccco2)nc2ccccc12 |  | active: 11.2 µM |
| COc1ccccc1N1CCN(CCCNc2cc(=O)n(C)c(=O)n2C)CC1 |  | inactive |
| O=C(O)CCCCC1CCSS1 (configuration not stated) |  | inactive and active: 14.1 µM |
| O=c1c2ccccc2nc2n1CCc1c-2[nH]c2ccccc12 | inactive: -6.62% |  |
| COc1ccccc1CNC(=O)/C=C/c1ccc(Br)o1 |  | active: 10 µM |
| Cc1c(N2C(=O)c3ccc4c5c(ccc(c35)C2=O)CC4)c(=O)n(-c2ccccc2)n1C |  | active: 14.1 µM |
| CCCCNc1ccc(C(=O)OCCN(C)C)cc1 |  | inactive |
| O=C1C=C(N2CCOCC2)c2ccccc2C1=O |  | active: 8.91 µM |
| Cc1cnc(C(=O)NCCc2ccc(S(=O)(=O)NC(=O)NC3CCCCC3)cc2)cn1 |  | inactive |
